Test results from PubChem BioAssay AID652104 (National Center for Advancing Translational Sciences (NCATS), 2013).
The campaign covered roughly 410,000 compounds. About 7,200 (1.8%) were called active. The inconclusive results got no clear call from the source; some entries with a clear call stand among them for comparison. Calls follow the shape of the dose curve; as a rule, active = well fitted activation curve with a large enough effect; inconclusive = small, poorly fitted or top-dose-only effect, or another doubt; inactive = no such curve, though single readings can be large or run the other way. No potency is given beside an inconclusive call; the fits are too rough.
Potency is read from the fitted curve at half-maximal effect; tags tell the direction and shape of the fitted curve.

Assay: qHTS of TDP-43 Inhibitors; also: nearly all actives have a fitted effect of over 50% in size; as to growth rescue (activation): % of control where 0% means no effect
Conditions: TDP-43 expressing yeast growth rescue, BacTiter-Glo, 24 h; growth rescue (activation): at 46.1 µM (top of the series) unless noted
Method in brief: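 Growth rescue of TDP-43-toxic yeast measured as ATP luminescence (BacTiter-Glo). Cells grown to mid-log in raffinose, induced in galactose at OD600=0.02, exposed to compound 24 hr at 30 deg C.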
For `Cc1ccc(CSc2ncc(Cl)c(C(=O)Nc3nnc(C)s3)n2)cc1`, the “growth rescue (activation)” value was inactive: 12.3%.
In the case of `C/C(=N/NC(=S)Nc1ccccc1)c1ccc2c(c1)OCO2`, the Potency is reported as inconclusive [activator, partial curve].
For `O=C(O)CC1(c2ccc(F)cc2)C2CC3CC(C2)CC1C3` (stereo unspecified), the Potency was inconclusive [activator, partial curve].
In the case of `CC(OC(=O)Nc1cccc(Cl)c1)C(=O)OC1CCCCC1` (stereo unspecified), the Potency is reported as inconclusive [activator, single point].
For `COc1ccc([N+](=O)[O-])cc1NC(=O)C(C)OC(=O)Cc1ccc(OC)c(OC)c1` (stereo unspecified), the Potency was inconclusive [activator, partial curve].
In the case of `COc1cccc(C(=O)Nc2cccc(-c3ccccc3)c2)c1`, the Potency is reported as active: 17.8 µM.
With `CCCNC1=C(C)C(=O)CC1` the “growth rescue (activation)” value was inactive: -0.265%.
For `Cc1c(C(=O)COC(C)(C)C)[nH]c2ccccc12`, the Potency was inconclusive [activator, single point].
For `CCOC(=O)c1c(NC(=O)COC(=O)CNC(=O)c2ccco2)sc(C)c1C`, the Potency was inconclusive [activator, single point].
In the case of `Cc1c(C(=O)NCc2ccccc2Cl)sc2ncnc(N(C)C3CCCCC3)c12`, the Potency is reported as inconclusive [activator, partial curve].
With `O=[N+]([O-])c1cc(-c2ncccn2)c([N+](=O)[O-])s1` the growth rescue (activation) was inconclusive: -92.5% [activator].
With `O=S(=O)(c1c(Cl)sc(Cl)c1Br)N1CCCC1` the Potency was active: 11.2 µM.
In the case of `Cc1ccn2c(Nc3ccc4c(c3)OCCO4)c(-c3ccc(C)o3)nc2c1`, the “growth rescue (activation)” value is reported as inactive: 19.5%.
For `O=c1ccc2nc3ccccc3sc-2c1`, the growth rescue (activation) was inconclusive: -94.3% [activator].
With `Nn1c(Nc2ccccc2)nc2sc3c(c2c1=O)CCC3` the Potency was inconclusive [activator, single point].
With `COc1ccc2c(c1)N(S(=O)(=O)c1ccccc1)CCC2=O` the Potency was inconclusive [activator, single point].
With `COc1ccc(Cl)cc1NC(=O)CNc1ccccc1F` the Potency was inconclusive [activator, partial curve].
For `Cc1cc(Cl)c2oc(C(=O)N3CCN(c4cccc(C)n4)CC3)c(C)c2c1`, the Potency was inconclusive [activator, partial curve].
For `N#Cc1cccc2c1-c1ccccc1/C2=N/NC(N)=S`, the Potency was active: 11.2 µM.
With `Cc1cc(C)cc(-n2ccnc2SCC(=O)O)c1` the “growth rescue (activation)” value was inactive: -1.02%.
With `COc1cc(Cl)c(NC(=O)c2cc3ccccn3n2)c(OC)c1` the Potency was inconclusive [activator, partial curve, poor fit].
With `Cc1nc2c(=O)n(-c3ccc(F)c(Cl)c3)nc(C)c2s1` the Potency was inconclusive [activator, partial curve].
For `O=C(CCC(=O)c1cccs1)NCc1ccccc1Cl`, the Potency was inconclusive [activator, partial curve].
For `O=C(CSCc1ccccc1)Nc1cccc(F)c1`, the Potency was active: 6.31 µM.
With `Cc1cnc(C(=O)N2CCN(c3ccc(C(F)(F)F)cn3)CC2)cn1` the Potency was inconclusive [activator, partial curve].
In the case of `CCc1ccc(NC(=O)CN2C(=O)c3cccc4cccc2c34)cc1`, the Potency is reported as inconclusive [activator, partial curve, poor fit].
With `O=C(Oc1ccccc1)N1CCN(c2ccccc2F)CC1` the Potency was inconclusive [activator, partial curve].
In the case of `CC1CCc2c(sc(N)c2C(N)=O)C1` (stereo unspecified), the “growth rescue (activation)” value is reported as inactive: -16.2%.
With `Cn1c(=O)oc2cc(S(=O)(=O)CCC(=O)N3CCN(c4cccc(Cl)c4)CC3)ccc21` the “growth rescue (activation)” value was inactive: 12%.
In the case of `O=C(OCC(=O)c1ccc(Cl)cc1Cl)c1ccc2c(c1)C(=O)N(c1cccc3ncccc13)C2=O`, the Potency is reported as inconclusive [activator, partial curve].
In the case of `O=C(NCc1ccccc1)c1ccc(NC(=O)N2CC3CCCN3c3ccccc32)cc1` (stereo unspecified), the Potency is reported as inconclusive [activator, partial curve].
With `O=C(/C=C/c1cccc([N+](=O)[O-])c1)OC1CCCCC1=O` (stereo unspecified) the Potency was inconclusive [activator, partial curve].
With `CNc1nc2sc3c(c2c(=O)n1C)CC(C)(C)SC3` the Potency was active: 12.6 µM.
In the case of `CCOc1ccc(S(=O)(=O)NCC(c2ccco2)S(=O)(=O)c2ccc(F)cc2)cc1` (stereo unspecified), the Potency is reported as inconclusive [activator, partial curve].
In the case of `CN(C)S(=O)(=O)c1cccc(NC(=O)COC(=O)/C=C/c2ccc(Br)o2)c1`, the “growth rescue (activation)” value is reported as inactive: -2.44%.
With `O=C(CSc1nnc(CNC(=O)c2ccc(F)cc2)o1)NCc1ccccc1Cl` the “growth rescue (activation)” value was inactive: 19.6%.
For `COC(=O)Cc1ccc(NC(=S)NCc2ccc(F)cc2)cc1`, the Potency was inconclusive [activator, single point].
With `COc1cccc2c1CCC(NC(C)=O)C2=O` (stereo unspecified) the “growth rescue (activation)” value was inactive: 13%.
For `CCOC(=O)CCCc1ccc(/C(C)=N/NC(N)=S)cc1`, the Potency was active: 20 µM.
For `CCc1ccc(Nc2cnn(-c3nc4ccccc4s3)c(=O)c2Cl)cc1`, the “growth rescue (activation)” value was inactive: -19.3%.
In the case of `Cc1ccc(N=C2NC(=O)CS2)cc1`, the Potency is reported as inconclusive [activator, single point].
For `CCCCn1cc(S(=O)(=O)c2cccc(C)c2)c(=O)c2cc(F)c(N3CCOCC3)cc21`, the Potency was inconclusive [activator, full curve].
For `CCCCOC(=O)c1cccc(NC(=O)c2cc3ccccc3o2)c1`, the Potency was inconclusive [activator, single point].
In the case of `COc1ccccc1C/C(N)=N/OC(=O)COc1cccc(C)c1C`, the Potency is reported as inconclusive [activator, single point].
With `COc1ccc(CNC(=S)Nc2cccc(OC)c2)cc1` the Potency was inconclusive [activator, single point].
In the case of `COCc1cc(N2CCN(c3ccccc3F)CC2)nc(-c2ccccc2)n1`, the Potency is reported as inconclusive [activator, partial curve].
In the case of `CCOc1ccc(-c2ccc(SCc3ccccn3)nn2)cc1`, the Potency is reported as inconclusive [activator, single point].
With `S=C(NCc1ccc(Cl)cc1)NC1CCCCC1` the Potency was inconclusive [activator, partial curve].
With `CCCN(C(=O)c1ccco1)c1nnc(-c2ccccc2C)s1` the Potency was active: 12.6 µM.
For `Cc1c(N)ccc(-n2nc3ccccc3n2)c1C`, the Potency was inconclusive [activator, partial curve].
For `CCC(=O)N(C1=C(NC)C(=O)c2ccccc2C1=O)C(C)C`, the Potency was inconclusive [activator, partial curve].
For `Cc1ccccc1OCC(=O)Nc1ccc(N2CCN(C(=O)C(C)C)CC2)c(Cl)c1`, the Potency was active: 25.1 µM.
For `O=C(CN1C(=O)COc2ccc(S(=O)(=O)N3CCOCC3)cc21)N1CCN(c2ccc(F)cc2)CC1`, the “growth rescue (activation)” value was inactive: 8.1%.
In the case of `CCCCCCC(=O)Nc1ccc(C(=O)N/N=C/c2cccnc2)cc1`, the “growth rescue (activation)” value is reported as inactive: -5.94%.
With `COc1cccc(C(=O)N/N=C/C(Br)=C/c2ccccc2)c1` the Potency was active: 20 µM.
For `COc1ccc(-c2cc(C(=O)N3CCN(c4ccccc4OC)CC3)no2)cc1OC`, the Potency was inconclusive [activator, single point].
For `COCc1cc(C)nc2sc(C(=O)Nc3ccccc3C)c(N)c12`, the Potency was inconclusive [activator, full curve].
In the case of `CCc1cccc(NC(=O)Cn2nc(-c3cc(C)ccc3C)ccc2=O)c1`, the Potency is reported as active: 28.2 µM.
For `N=C(N=C(N)N)N1CCOCC1`, the Potency was inconclusive [activator, partial curve, poor fit].
With `Cc1ccc(S(=O)(=O)Nc2ccccc2/C=N/c2nc3ccccc3n2C(C)C)cc1` the Potency was inconclusive [activator, single point].
With `CCOc1ccc(-c2csc(/C(C#N)=C/c3ccc(Br)cc3)n2)cc1` the “growth rescue (activation)” value was inactive: 22.1%.
With `CC(C)C(=O)Nc1nnc(-c2ccccc2)o1` the Potency was inconclusive [activator, partial curve, poor fit].
For `Cc1ccc(N=C2NC(=O)c3cc([N+](=O)[O-])ccc32)cc1`, the Potency was inconclusive [activator, partial curve].
For `CCSc1nnc(NC(=O)CN2C(=O)N(C)C3(CCCCC3)C2=O)s1`, the “growth rescue (activation)” value was inactive: 9.65%.
For `O=c1c2cnn(-c3ccc(Cl)cc3)c2ncn1Cc1cccc(C(F)(F)F)c1`, the “growth rescue (activation)” value was inactive: 20.2%.
In the case of `Cc1nn(CC(=O)Nc2ccccc2F)c(=O)c2c(C)n(-c3ccc(Cl)cc3)nc12`, the “growth rescue (activation)” value is reported as inactive: 11.8%.
For `CCN(Cc1ccccc1)C(=O)c1cc2c(s1)-c1c(C)cccc1OC2`, the “growth rescue (activation)” value was inactive: -17.7%.
For `CC(C)(C)N(Cc1ccccc1)C(=O)COC(=O)C1CCCCC1`, the Potency was inconclusive [activator, partial curve].
With `Nc1nc(SCc2ccc(Cl)cc2Cl)ns1` the Potency was inconclusive [activator, single point].
For `COc1cccc(N2CCN(C(=O)c3cnn(-c4ccc(C)cc4C)c3C3CCN(C(=O)OC(C)(C)C)CC3)CC2)c1`, the “growth rescue (activation)” value was inactive: 15.4%.
In the case of `COc1ccc2nc(N3CCC(C)CC3)c(C#N)cc2c1`, the Potency is reported as active: 35.5 µM.
For `Cc1nc(Sc2nnnn2-c2ccccc2)c(C#N)c(C)c1C`, the Potency was active: 17.8 µM.
In the case of `NC(=O)c1ccc(Br)c(S(=O)(=O)N2CCCCC2)c1`, the “growth rescue (activation)” value is reported as inactive: -5.38%.
In the case of `O=S(=O)(NCCc1csc(-c2cccnc2)n1)c1cccs1`, the “growth rescue (activation)” value is reported as inactive: 20.4%.
With `O=C(CN1C(=O)/C(=C\c2ccccc2Br)Oc2ccccc21)NCCCN1CCOCC1` the Potency was inconclusive [activator, partial curve].
In the case of `O=C(c1ccc2nc(-c3ccccc3)c(-c3ccccc3)nc2c1)N1CCCCC1`, the Potency is reported as active: 35.5 µM.
